# Data: the supplement of paper PMC4466236
# Over roughly 33,000 sequences, “E-score (dimensionless, -0.5 to 0.5)” has its median near -0.058; the highest 2% begin near 0.35. The list shows a part of the results.
# Test system: MvaT
# Test: PBM 8-mer E-score (mean of HK and ME arrays) (E-score (dimensionless, -0.5 to 0.5)); higher = stronger relative binding preference; most listed sequences are background and not binding sites
# Summary of the method: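 Full-length P. aeruginosa MvaT carrying an N-terminal glutathione S-transferase tag was tested by protein binding microarray following a previously described protocol. Two universal double-stranded 60-mer arrays, ME and HK, were used, each with a constant 25-mer primer region and a variable 35-mer region covering all 8-mers. The rank-based E-score is the mean of the two arrays, parsed with a custom script. Its range runs from -0.5 to 0.5 for each 8-mer.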
row,Sequence,PBM 8-mer E-score
1,GAGCGCTA,-0.193
2,GCCAGGAA,-0.0628
3,AGTGACAT,0.0904
4,CCAAACAG,0.111
5,GAGTAGAC,-0.0971
6,CAAAGCTC,-0.204
7,GCTATTTA,0.252
8,GAAGCATA,0.00764
9,ATGACGGA,0.0245
10,AATCATCA,0.0409
11,CATGGAAA,0.0655
12,ACAGCAGG,-0.204
13,GAGTGGGA,-0.248
14,CCCATTAA,0.115
15,CCACGCGG,-0.298
16,AAAAGACA,0.0356
17,ACGCACTG,-0.0124
18,ACCGAGAA,-0.0905
19,CTCCTAAC,-0.0334
20,CTGTTTAC,-0.0364
21,ACTCTGCC,-0.017
22,AACAAAAG,0.246
23,GAGCTAGA,-0.134
24,AGGCGTCC,-0.188
25,GGCGGAAC,-0.146

row,Sequence,PBM 8-mer E-score
1,CATCCAGC,-0.156
2,CCATGGCC,-0.228
3,CTCTGAGA,-0.059
4,GACTCTTA,0.0799
5,CCCTGAAC,-0.186
6,GCGCAAGA,-0.123
7,TACGATCA,0.0229
8,ATGTCTTG,0.0131
9,AAGCGAAG,-0.0917
10,AGTGAATG,0.0409
11,ACAATCAT,0.191
12,CGTGTATA,0.217
13,ATAGCGCA,-0.0123
14,CGGGTCAG,-0.313
15,CGCGAAAG,-0.237
16,CTTACTAA,0.161
17,GATGAGAC,-0.135
18,CTGCCTTC,-0.156
19,GCTCACCC,-0.231
20,AAGCCCAT,-0.123
21,AAGGCCAA,-0.0804
22,AACATCAT,0.171
23,CCTATTGA,-0.0596
24,AGACCTAT,-0.162
25,AAATTAAT,0.426

row,Sequence,PBM 8-mer E-score
1,GAGCCGAC,-0.262
2,CGCCTATA,0.0163
3,GCCTTAGA,-0.187
4,CCTACACC,-0.222
5,CATATGGA,0.0392
6,TGACGCCA,-0.23
7,ATTGCCCA,0.114
8,CTGAGAAG,-0.123
9,AGTCATCG,-0.269
10,TCGTGTAA,0.0375
11,GACGGAGA,-0.132
12,ACTAACCC,-0.139
13,CTCAAAAG,-0.194
14,CGTATGCC,-0.164
15,TACCGCCA,0.103
16,GACATAGA,0.0048
17,AAAGTGCG,0.116
18,GTATCCAC,0.0224
19,TTAGCAAA,0.165
20,GCGCCAGA,-0.246
21,TCCATTAA,0.244
22,GCTTGTAC,-0.268
23,CAATTGGC,-0.0444
24,ACCGAACA,-0.12
25,CCGGAGCA,-0.192

row,Sequence,PBM 8-mer E-score
1,ATTCATAG,0.106
2,AGCTTGCG,-0.227
3,AATGTAGA,0.198
4,AGAGTTAG,0.121
5,CTGTATAA,0.264
6,TGTACAAA,0.275
7,AGCTCTGC,-0.282
8,CAGCCCGC,-0.231
9,GAAACCAC,-0.154
10,ACGTGCAA,0.138
11,GTTACGAA,-0.144
12,TGCGCTAA,0.0528
13,GCCGTTCC,-0.236
14,GACTAGAC,-0.129
15,CAAACACG,0.0231
16,ACGCTGCC,-0.0458
17,ATTGGCAG,-0.105
18,CAGCAAAG,-0.137
19,TATCTTGA,0.171
20,AAACAATA,0.375
21,GTCTCGAA,-0.195
22,AGTCTCTC,-0.223
23,TTGAGAAA,0.135
24,GCGGACCA,-0.215
25,ATGTAATA,0.317

row,Sequence,PBM 8-mer E-score
1,CACTGGGC,-0.225
2,GCTAATCC,-0.00964
3,CAAGATCG,-0.0377
4,CTGTGGAA,-0.0858
5,CTGTAAGC,-0.244
6,GGTGCATA,0.122
7,AAGCCGGA,-0.238
8,AACGTCGC,-0.0885
9,CTTGAACA,-0.0207
10,CAAGAGCC,-0.126
11,TATCTGCA,0.161
12,ACCTCCCG,-0.284
13,AATCCGGT,-0.0559
14,CAGGGGAC,-0.275
15,CGATGGCG,-0.208
16,CTTCACCC,-0.0312
17,TACAAGGA,0.0292
18,GGCTCCTA,-0.175
19,AAATTCTT,0.202
20,AAATATTT,0.463
21,CTGCTGGC,-0.206
22,AATTTTCA,0.28
23,GACACTCA,-0.151
24,CCACTCTA,-0.0493
25,ACCGTCCG,-0.0624

row,Sequence,PBM 8-mer E-score
1,ACTCCACT,-0.122
2,CTGCCAGA,-0.127
3,ACAGCTTG,-0.162
4,ATATACCG,0.292
5,CGCAGCTA,-0.0863
6,AGTACACC,-0.0289
7,TAATGCGA,0.181
8,CTTTCACC,0.0209
9,CCTAAGCC,-0.154
10,CCCGAACC,-0.262
11,CAAACCAG,0.029
12,CCTGGTAG,-0.276
13,CCTTATAC,0.119
14,CAGTCACG,-0.198
15,CCGGTGCG,-0.289
16,CAGTGGTC,-0.232
17,GGTCCTGA,-0.23
18,GGTAACAC,-0.0607
19,CACACCGG,-0.205
20,CACACGCA,-0.0659
21,GAGTACCA,-0.178
22,AGGTGTAC,-0.147
23,AGTTCCAT,0.0749
24,AAACACCT,0.0794
25,TATCGTGA,0.0878

row,Sequence,PBM 8-mer E-score
1,GGTTGTGA,-0.0521
2,GGCGTCTA,-0.284
3,TTAGACAA,0.157
4,AAGATGTG,-0.0435
5,ACGCCCAC,-0.161
6,GGACTACC,-0.179
7,ACGCACCG,-0.0972
8,CGTTGCGA,-0.152
9,CTACTGAG,-0.224
10,TCCAAAGA,0.0835
11,CCTCAATA,0.0424
12,ATTACTGA,0.0102
13,GCGCTGAA,-0.0885
14,AAGAAAAA,0.227
15,ATGACCTG,-0.161
16,GCTGACTA,0.00173
17,GACGCAAA,-0.0286
18,TAATATAA,0.463
19,GAAGCGCC,-0.27
20,TAGCTTAA,0.204
21,ACTATGCA,0.0943
22,AAGAATCC,-0.0742
